# Data taken from PubChem BioAssay AID504444 (National Center for Advancing Translational Sciences (NCATS), 2011).
# In all, about 360,000 compounds went through this assay and about 7,500 (2.1%) were called active. Roughly 20% stayed inconclusive and do not appear here. The call rests on the fitted dose curve; in most records, active means well fitted inhibition curve with a large enough effect; inconclusive means small, poorly fitted or top-dose-only effect, or effect the other way; inactive means flat fitted curve, though single readings scatter. The entries are a selection whose mix differs from that of the whole data set. More than one record can exist for a structure, and the calls need not agree.
# Test: Nrf2 qHTS screen for inhibitors; further: nearly all actives have a fitted effect of over 60% in size
# Conditions: A549 ARE-Fluc reporter, luciferase luminescence, 18-24 h; series mostly up to 46 µM; activity change, negative = inhibition: at the top concentration
# In short: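 Quantitative HTS in A549 cells stably bearing an antioxidant response element-firefly luciferase construct. Inhibition of Nrf2-driven transcription was scored by luminescence after 18-24 h of compound exposure at 37 °C.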
# On the % scale 0 is the no-effect control and ±100 the full control effect; potency means the concentration at half of the fitted maximal effect.
Compound,"activity change, negative = inhibition",Potency
CC(C)(C)OC(=O)C[C@@H]1C/C=C\C[C@H](CC(=O)N(CCO)Cc2ccccc2)C(=O)NC[C@@H](c2ccccc2)OC1=O,inactive: -10.9%,
C=CCC[C@@H](Cc1ccc(F)cc1)C(=O)OC[C@@H](C)NC(=O)[C@@H](CC=C)CC(=O)N[C@H](CO)Cc1ccccc1,inactive: -24.6%,
Cc1ccc(CNC(=O)CCC(=O)N2CC(C)Sc3ccccc32)cc1 (configuration not stated),inactive: 20.8%,
Cc1ccc(NS(=O)(=O)c2ccc3c(c2)NC(=O)CCS3)c(Br)c1,inactive: -4.29%,
COc1ccccc1N1CCN(CCCNC(=O)Cn2ncc3c([nH]c4ccccc43)c2=O)CC1,inactive: -15.1%,
C/C=C1\COC(C(=O)NCc2ccncc2)(C(F)(F)F)C=C1C=C1CCCCC1 (configuration not stated),inactive: -8.7%,
COc1cc(NC(=O)CCS(=O)(=O)c2ccc3c(c2)n(C)c(=O)c(=O)n3C)cc(OC)c1,inactive: 12.2%,
CCN(c1ccccc1C)S(=O)(=O)c1nnc(NC(=O)c2ccco2)s1,inactive: 5.95%,
O=C(Cn1cccc1C(=O)c1ccccc1)NCc1ccccc1Cl,inactive: 83.3%,
CCOC(=O)[C@@H]1[C@H]2COc3cc(OC)ccc3[C@@H]2N2C(=O)N(c3ccc(C(F)(F)F)cc3)C(=O)[C@@]12C,inactive: 4.84%,
Cc1ccc(S(=O)(=O)/N=C2/NC(=O)/C(=C/c3ccccc3)S2)cc1,inactive: -13.8%,
CCOC(=O)c1sc(NC(=O)c2cc(-c3ccccc3)nc3ccccc23)c(C#N)c1C,,active: 4.61 µM
CN(C)c1ccc(-c2cc(C3C4C=CCCC4(C)C(=O)N3Cc3ccccc3)ccc2F)cc1 (configuration not stated),inactive: -21.9%,
Cc1nn(-c2ccccc2)c(N2CCCC2)c1/C=N/n1cnc2scc(-c3ccccc3)c2c1=O,inactive: -4.11%,
O=C(NCCc1ccc(Cl)cc1)c1ccc(CS(=O)Cc2ccccc2Cl)o1 (configuration not stated),inactive: -11.1%,
CCSc1ccc([C@@H]2[C@@H]3C(=O)N(C)C(=O)[C@@H]3[C@]3(C(=O)OC)CCCCN23)cc1,inactive: -20.6%,
O=C(c1cc(S(=O)(=O)N2CCN(c3ccccc3)CC2)ccc1Cl)N1CCCC(C(F)(F)F)C1 (configuration not stated),,active: 4.61 µM
Cc1c(Cl)cccc1Nc1ncccc1C(=O)O,inactive: 23%,
O=C(NCc1cccnc1)/C(=C/c1ccc(-c2cccc(Cl)c2)o1)S(=O)(=O)c1ccccc1,inactive: 12.5%,
C=CC[C@@H](CC(=O)N[C@@H](CO)Cc1ccccc1)C(=O)N[C@H](COC(=O)[C@@H](CC=C)CC(=O)OC(C)(C)C)Cc1ccccc1,inactive: 0.939%,
CC(CNS(=O)(=O)c1ccc2c(c1)CC(=O)N2C)c1ccccc1 (configuration not stated),inactive: 9.98%,
Cc1cc(C)c2oc(C(=O)Nc3ccc(S(=O)(=O)N4CCC(C)CC4)cc3)cc(=O)c2c1,inactive: -27.6%,

Compound,"activity change, negative = inhibition",Potency
C[C@H](NC(=O)c1nc[nH]c1C(=O)N1CCN(c2ccccc2)CC1)c1ccccc1,inactive: -1.39%,
COc1ccc(OC)c(-c2nnc3n2N=C(c2ccc(OC)c(OCC4CC4)c2)CS3)c1,,active: 14.6 µM
CC(=O)c1cn(CCOc2cc(C)ccc2C)c2ccccc12,,active: 6.51 µM
CCc1cc(C(N)=S)ccn1,inactive: 0.309%,
Cc1ccc(-c2nnc(-c3ccc(NC(=O)Cc4cccs4)cc3)o2)cc1,,active: 9.2 µM
OCC[C@@H]1C[C@@H](O)[C@H](O)[C@@]2(Cc3ccccc3CO2)O1,inactive: 12.6%,
COc1ccc(NC(=O)C2CCCN(S(=O)(=O)c3ccc4c(c3)oc(=O)n4C)C2)c(OC)c1 (configuration not stated),inactive: -14.9%,
CCc1ccc(NS(=O)(=O)c2c(C)nc3sc(CC)nn3c2=O)cc1,inactive: -2.98%,
CCOC(=O)/C(=C\C=C1/Sc2cc(OCC)c(OCC)cc2N1CC)C(C)=O,inactive: -22.9%,
C[C@H](CO)N1C[C@H](C)[C@@H](CN(C)S(=O)(=O)c2ccccc2)Oc2ccc(NC(=O)C3CCCCC3)cc2C1=O,inactive: 6.33%,
O=C(CSc1ccc(-c2ccccn2)nn1)Nc1ccc(F)cc1F,inactive: -21.4%,
CCOC(=O)CNc1nc(C#N)nc(N2CCOCC2)n1,inactive: 1.3%,
C[C@H]1CCC[C@]2(O[C@@H](CCO)C[C@@H](O)[C@@H]2O)O1,inactive: 3.68%,
COc1cc2c(=O)n(CCC(=O)NCC3CCCO3)c(=O)n(CC(=O)Nc3ccc(C)cc3C)c2cc1OC (configuration not stated),inactive: 4.46% [at 9.27 µM],
CS(=O)(=O)c1ccc(C(=O)Nc2cc(-c3ccccc3)nn2-c2ccccc2)cc1,,active: 14.6 µM
Cc1oc(-c2ccccc2)cc1C(=O)Nc1cccc(/C=C\C(=O)O)c1,inactive: -13.5%,
CCc1nn2c(=O)c(S(=O)(=O)Nc3ccc(C(C)C)cc3)c(C)nc2s1,inactive: -19.6%,
CCOc1ccc(Cn2c(=O)sc3ccccc32)cc1,inactive: 3.51%,
COc1ccc(C(=O)Nc2cccc(/C=C(\CCC(=O)O)c3nc4ccccc4s3)c2)cc1,inactive: 2.58%,
CCn1cc(C(=O)N2CCN(c3ccccc3)CC2)c(=O)c2cc(S(=O)(=O)N3CCOCC3)ccc21,inactive: -11.5%,
C=CCC[C@@H](Cc1ccc(F)cc1)C(=O)OC[C@@H](Cc1c[nH]c2ccccc12)NC(=O)[C@@H](CC=C)CC(=O)N[C@@H](CO)Cc1ccccc1,inactive: 7.77%,
COc1cccc(N2CCN(C(=O)c3cc4c(s3)-c3ccccc3OC4)CC2)c1,inactive: -11.5%,

Compound,"activity change, negative = inhibition",Potency
CC(C)COc1ccc(C(=O)N(CC(=O)Nc2ccccc2C(F)(F)F)Cc2ccco2)cc1,,active: 18.4 µM
Cc1cc2[nH]c(=O)c(=O)[nH]c2cc1S(=O)(=O)N1CCN(c2ccccc2F)CC1,inactive: -6.16%,
O=C(NCc1ccc(Cl)cc1)N1CCN(Cc2ccccc2)CC1,,active: 23.1 µM
C=CC[C@@H](CC(=O)N[C@@H](CO)Cc1ccccc1)C(=O)N[C@@H](C)COC(=O)[C@@H](CC=C)Cc1ccc(F)cc1,inactive: -0.849%,
O=C(C1CCN(c2ncnc3c2nc2n3CCCCC2)CC1)N1CCN(c2ccc(F)cc2)CC1,inactive: 1.97%,
CCCN(CCC)CCNC(=O)c1cc2c(-c3ccc(Cl)cc3)nn(C)c2s1,inactive: 7.07%,
COC(=O)C1=C(C)NC(C)=C([N+](=O)[O-])C1c1ccccc1C(F)(F)F (configuration not stated),inactive: -24%,
C=C1CCN(C(CC(C)C)C(=O)OC)S(=O)(=O)c2ccccc21 (configuration not stated),inactive: -2.38%,
CC(=O)Oc1ccc(C(=O)Nc2cccc(-c3nnc(-c4ccco4)o3)c2)cc1,,active: 16.4 µM
CC1=C(C(=O)OCc2ccc3c(c2)OCO3)C(c2ccccc2)NC(=O)N1 (configuration not stated),,active: 8.2 µM
O=C1c2ccccc2-c2nc3ccccc3n21,inactive: 11.3%,
CCCCCn1c(=O)[nH]c2cc(C(=O)N3CCN(c4ccccc4F)CC3)ccc2c1=O,inactive: 1.67% [at 9.27 µM],
CC1=C(C(=O)OCc2ccc3c(c2)OCO3)C(c2ccccc2OCc2ccccc2)NC(=O)N1 (configuration not stated),,active: 13 µM
C[C@H](NC(=O)c1[nH]cnc1C(=O)Nc1ccc(Cl)cc1)c1ccccc1,,active: 18.4 µM
CN=C1SC(CC(=O)NCCc2ccc(OC)c(OC)c2)C(=O)N1C (configuration not stated),inactive: 11.7%,
COc1ccccc1NC(=O)Cn1nnc(C(=O)NCc2ccc3c(c2)OCO3)c1N,inactive: 2.8%,
Cc1ccc(Nc2c(-c3ccco3)nc3nc(C)cc(C)n23)cc1,inactive: 7.14%,
O=C(NCCCn1ccnc1)/C(=C/c1cccnc1)NC(=O)c1ccco1,inactive: 15.8%,
COc1cc(/C=C2\SC(=S)N(CC(=O)O)C2=O)ccc1OC(=O)c1ccco1,inactive: -11.4%,
CC1CC=CC2C1C(=O)N(Cc1ccccc1)C2c1ccc2ccccc2c1Br (configuration not stated),inactive: -25.7%,
COc1ccc(C2=Nn3c(nnc3-c3ccccc3OC)SC2)cc1OC,,inactive
CCOC(=O)c1cc2c(=O)n3ccccc3nc2n(CC(C)C)c1=NC(=O)c1c(-c2c(F)cccc2Cl)noc1C,inactive: -5.78% [at 9.27 µM],

Compound,"activity change, negative = inhibition",Potency
O=C(Nc1ccc(C(=O)N2CCCc3ccccc32)cc1)c1cccs1,,active: 20.6 µM
COc1ccccc1Nc1cc(C(=O)NC2CCCC2)c2ccccc2n1,inactive: 2.21%,
CC1(C)CCc2cc(S(=O)(=O)N3CCN(S(=O)(=O)c4c(F)cccc4F)CC3)ccc2O1,,inactive
O=C1OC[C@H]2CCCN2C(=O)[C@@H](CC(=O)N(CCO)Cc2ccccc2)C/C=C\CC[C@H]1Cc1ccc(F)cc1,inactive: -8.1%,
Cc1ccc(CCNC(=O)CCS(=O)(=O)c2ccc3c(c2)oc(=O)n3C)cc1,inactive: 1.34%,
Cc1ccc(-c2nnc(NC3CCCCC3)c3ccccc23)cc1S(=O)(=O)N1CCN(C)CC1,,active: 23.1 µM
CCCCN(CC)CCNC(=O)c1nn(-c2ccc(OC)cc2)c(=O)c2c1c1ccccc1n2C,inactive: 15.4%,
Cc1ccc(NC(=O)CCNS(=O)(=O)c2cccs2)cc1F,inactive: 5.52% [at 9.27 µM],
CCCCCCSc1ccc([C@@H]2[C@H]3C(=O)N(C)C(=O)[C@H]3[C@]3(C(=O)OC)CCCCN23)cc1OC,inactive: -11.5%,
CN(C)c1ccc(/C=C(/C#N)C(=O)Nc2nc3c(s2)CCN(Cc2ccccc2)C3)cc1,inactive: -2.72%,
O=C(CN1C(=O)S/C(=C\C=C\c2ccccc2)C1=O)Nc1ccc(C(=O)O)cc1,inactive: 0%,
CC(C)[C@H](Nc1ccc(C(F)(F)F)cc1[N+](=O)[O-])C(=O)O,inactive: 5.44%,
CCO[C@H]1OC(C(=O)N2CCN(Cc3ccc4c(c3)OCO4)CC2)=C[C@@H](C)[C@@H]1CCCO,inactive: 9%,
CCc1ccc2[nH]c(=O)c(C3C(C#N)=C(N)Oc4c3ccc3cccnc43)cc2c1 (configuration not stated),,active: 14.6 µM
O=C1NC[C@H](c2ccccc2)OC(=O)[C@H](Cc2ccc(F)cc2)C/C=C\C[C@H]1CC(=O)N(CCO)Cc1ccccc1,inactive: -19.1%,
O=C1OC(c2ccccc2)(c2ccccc2)N2CCN(C(=O)NCc3ccc(F)cc3)CC12 (configuration not stated),inactive: -29.2%,
C=CCOC(=O)/C(=C\c1cccc2ccccc12)NC(=O)c1ccccc1,inactive: 3.51%,
Cc1ccc(NC(=O)CCc2c(C)nn(-c3ccc(N4CCCCC4)nn3)c2C)cc1F,inactive: 15.5%,
Cc1ccc(NC(=O)CCn2c(=O)c3cccn3c3ccccc32)cc1C,inactive: -18.2%,
N#C/C(=C\C=C\c1ccccc1)C(=O)Nc1ccccc1,inactive: 0.398%,
COC(=O)C1=C(C)NC(C)=C(C(=O)OC)C1C(=O)OC(C)C(=O)c1ccccc1 (configuration not stated),inactive: -5.88%,
